# Reference: the supplement of paper PMC3334620
# Over roughly 33,000 sequences, “E-score (-0.5 to 0.5)” has its median near -0.053; the highest 2% begin near 0.37. The list shows a part of the results.
# Target: Hap1 (UniProt P0CE41)
# Assay: PBM E-score (8-mer binding enrichment) (E-score (-0.5 to 0.5)); higher = stronger / more preferred TF binding; most listed sequences are background and not binding sites
# Settings: protein concentration: 200 nM; construct: GST-DNA-binding domain
# In short: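 Masliner-normalised scans of fluorescent anti-GST signal were the basis for scoring. That signal came from GST-tagged yeast transcription factors applied at about 100-200 nM to double-stranded universal all-10-mer Agilent arrays on fresh or once-stripped slides. Each ungapped eight-base word, pooled with its reverse complement, received an E-score from the Universal PBM Analysis Suite.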
# Sequence of UniProt P0CE41 (P0CE41 whole entry): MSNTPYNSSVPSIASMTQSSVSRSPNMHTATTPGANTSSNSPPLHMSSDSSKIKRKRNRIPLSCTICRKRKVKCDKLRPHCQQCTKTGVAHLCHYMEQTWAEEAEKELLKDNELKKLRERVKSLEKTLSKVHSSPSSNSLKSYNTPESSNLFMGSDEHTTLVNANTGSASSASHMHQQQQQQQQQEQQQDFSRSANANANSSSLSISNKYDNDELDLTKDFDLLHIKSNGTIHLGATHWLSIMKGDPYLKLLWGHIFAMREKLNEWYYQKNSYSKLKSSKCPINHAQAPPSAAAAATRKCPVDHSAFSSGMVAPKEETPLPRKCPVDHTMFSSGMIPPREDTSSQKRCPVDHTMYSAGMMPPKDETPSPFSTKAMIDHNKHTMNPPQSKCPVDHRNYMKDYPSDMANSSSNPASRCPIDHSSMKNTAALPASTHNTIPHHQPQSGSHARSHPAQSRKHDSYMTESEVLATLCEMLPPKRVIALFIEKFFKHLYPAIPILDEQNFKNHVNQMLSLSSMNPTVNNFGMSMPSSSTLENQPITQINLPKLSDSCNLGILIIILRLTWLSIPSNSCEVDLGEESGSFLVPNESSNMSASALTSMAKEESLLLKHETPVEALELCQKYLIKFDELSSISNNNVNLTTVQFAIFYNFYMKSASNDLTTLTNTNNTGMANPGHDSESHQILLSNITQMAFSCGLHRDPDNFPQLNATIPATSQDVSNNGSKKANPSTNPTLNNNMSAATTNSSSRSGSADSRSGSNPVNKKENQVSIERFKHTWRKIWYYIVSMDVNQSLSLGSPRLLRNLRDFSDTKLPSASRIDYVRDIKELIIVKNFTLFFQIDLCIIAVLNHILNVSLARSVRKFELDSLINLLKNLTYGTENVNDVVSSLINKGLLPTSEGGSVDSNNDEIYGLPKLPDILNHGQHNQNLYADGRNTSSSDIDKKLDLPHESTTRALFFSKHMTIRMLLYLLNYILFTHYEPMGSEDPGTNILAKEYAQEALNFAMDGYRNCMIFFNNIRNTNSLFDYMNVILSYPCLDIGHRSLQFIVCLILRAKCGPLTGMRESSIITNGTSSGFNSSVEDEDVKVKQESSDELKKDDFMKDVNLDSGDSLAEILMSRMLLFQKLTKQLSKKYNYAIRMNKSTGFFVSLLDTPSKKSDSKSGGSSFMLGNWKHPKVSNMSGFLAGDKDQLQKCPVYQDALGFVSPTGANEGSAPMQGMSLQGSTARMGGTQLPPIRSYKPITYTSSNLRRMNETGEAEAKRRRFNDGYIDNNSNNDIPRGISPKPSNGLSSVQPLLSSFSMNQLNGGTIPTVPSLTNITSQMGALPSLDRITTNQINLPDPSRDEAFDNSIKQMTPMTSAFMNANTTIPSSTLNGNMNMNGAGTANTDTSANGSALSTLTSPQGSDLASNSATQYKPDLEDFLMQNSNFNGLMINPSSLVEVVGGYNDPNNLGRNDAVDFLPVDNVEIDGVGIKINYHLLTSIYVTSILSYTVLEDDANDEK
row,Sequence,PBM E-score
1,ATGAAGGC,-0.0409
2,CTTAACCA,-0.28
3,TAAACGAA,-0.0006
4,TATTAACA,0.0726
5,AGAAGTGG,-0.0623
6,CACGATGG,-0.207
7,AATGCGAG,-0.12
8,AGTCGGTG,0.156
9,GCACCTAA,-0.0548
10,AAGGTAAA,-0.119
11,CGCGTCGC,-0.0882
12,ACCATTAT,-0.0869
13,TGACATAA,-0.0779
14,AACAATCT,-0.133
15,ACCTAACT,0.0611
16,AGGTGAAC,-0.12
17,GAATCCGA,0.307
18,GATGTGGA,0.14
19,CTTCGTAC,-0.105
20,CCTCAACG,-0.133
21,GACCCCCA,-0.129
22,ATCATTCC,0.216
23,CTACAAAC,-0.247
24,AATCTCGC,0.0134
25,CAGCATTA,-0.0607

row,Sequence,PBM E-score
1,AAGCACAA,-0.193
2,CTAGCCAG,-0.186
3,GGCTATAC,0.059
4,AACTTTTG,-0.0532
5,GCAATTAA,0.227
6,AAGGAGAG,-0.277
7,CAAACATA,-0.255
8,ATGTTCGG,0.255
9,ACGTGATC,-0.0584
10,CTATACTA,-0.0572
11,AGACCAAA,-0.0471
12,AACAGTTG,-0.0951
13,ATTAGCGC,0.0834
14,ACCCGCCT,-0.0282
15,AAACGTAG,-0.24
16,AAGGACTC,0.0381
17,ACCTTTTG,0.00851
18,CTCCAGTC,0.00384
19,CGGAAACG,0.254
20,AGTGAGGG,-0.173
21,ACGGCATA,-0.0591
22,ATCCACTC,0.0225
23,TCGAGCCA,-0.186
24,ACAAATTG,-0.076
25,ATATCCGG,0.452

row,Sequence,PBM E-score
1,CCTGGTTA,-0.219
2,TCTCAGCA,-0.326
3,GCTATCAC,-0.0699
4,GTACGCGA,-0.225
5,TGGCCACA,-0.0517
6,AGGATGCA,-0.194
7,ATCCGTTA,0.409
8,AGTAATCA,0.0446
9,CAAAGACA,0.00289
10,ACGTCCTA,-0.0197
11,GAACGCAC,-0.0629
12,TATTCGGA,0.37
13,GAACCGGA,0.382
14,CGACCGAC,0.301
15,TGGGCGAA,-0.0412
16,CGCTGGGC,0.104
17,ACAAATAA,0.0132
18,CCACTCGC,0.0299
19,TACGCACA,-0.138
20,CAGTCGGG,0.252
21,AAAGCTAA,-0.123
22,GGACCTGA,0.0872
23,ATGCAGGG,-0.275
24,CGATCGCA,0.0453
25,AGGTCCGC,0.33

row,Sequence,PBM E-score
1,ATTCAGGG,-0.062
2,CGCATTGA,0.117
3,CGGATGAC,0.233
4,CTCTGAAC,-0.171
5,CGTATTAC,0.17
6,GACCCTAA,-0.0254
7,GAGTTTAA,0.0474
8,CGCTTGAC,-0.0591
9,AGGGGGAA,-0.304
10,AATCTAGT,0.08
11,ACTTCTTC,-0.125
12,TCAGAAAA,-0.316
13,CCCCTCTA,-0.0873
14,CCTGCTGA,-0.165
15,AAGGTCAC,-0.184
16,AACTACAG,0.0529
17,GAGCAAGC,-0.0766
18,TACGGTGA,0.0448
19,GCCAGGGC,-0.0132
20,AAGGACTA,-0.253
21,CTCTGCCC,-0.0938
22,AGCGGGCC,0.166
23,CGCCCTCC,0.0182
24,CCGAACAA,0.349
25,AAGGTTGA,-0.109

row,Sequence,PBM E-score
1,CTCAGCAG,-0.265
2,CGTTCACA,0.00621
3,CACCAGGA,-0.0507
4,CCCACTCG,0.0808
5,ATTAGTTC,0.0975
6,ACCTTTCC,0.231
7,CGAGGGGC,-0.123
8,CGCAGGAC,-0.15
9,CATATATG,-0.177
10,TAGGGCCA,-0.218
11,AAAAGTTG,-0.181
12,TAGGCTGA,-0.232
13,CGCCAATC,-0.0573
14,CAAACTCA,-0.128
15,ACCGTCAG,-0.057
16,TATGTTAA,-0.102
17,GGCCCTGA,-0.0873
18,CGCGACTA,0.197
19,AATGTCAT,-0.0552
20,AAAAGACT,-0.259
21,GACGAGAC,0.0457
22,CGCTCTAA,0.0174
23,ATACAGCA,-0.0098
24,TACTTGGA,-0.201
25,GTGACGGA,0.214

row,Sequence,PBM E-score
1,CAGCCGGG,0.2
2,ATCGGACG,0.422
3,GGTGAAGA,-0.0724
4,ACTAGCGG,0.143
5,CAAGGAAA,-0.0196
6,TAGAGTCA,-0.216
7,ATGCTCCC,-0.12
8,GTTTTCCA,-0.113
9,ATGCCCAT,-0.326
10,ACTGCACA,-0.215
11,CATCGTCG,-0.0546
12,CGAAGACC,0.126
13,AGTCGCCA,-0.255
14,CTCTTAAG,0.00808
15,ATCCCCGG,0.426
16,CTTTGAGC,-0.126
17,ATCCTGCG,-0.0516
18,TCCTTCCA,-0.208
19,CATTATTC,0.13
20,GGGAAGAA,-0.0354
21,ACACAAGG,-0.25
22,ATAGGTCG,0.0778
23,AGTTAATA,0.068
24,AGACAGCT,-0.21
25,CTCACCGC,-0.173

row,Sequence,PBM E-score
1,GCACCCGC,0.159
2,AGGGTGAT,-0.15
3,CGAATCGC,0.104
4,ACTGCACT,-0.141
5,CGCAAAAC,0.0733
6,CTTGAGAC,0.00213
7,CATGACCG,0.153
8,CACGAATG,-0.199
9,ACGCCTTC,-0.0458
10,AGACCTCT,-0.208
11,ATAGGTAA,-0.106
12,CTCATAAC,-0.0544
13,ATGACAAT,-0.168
14,ACCGGCGT,0.282
15,TCGCTACA,-0.235
16,ATGAATGC,-0.0559
17,CCACCAAC,0.102
18,TAAAGACA,-0.196
19,CGCCTCTC,-0.257
20,GAATGCTC,-0.05
21,CAGGCTGA,-0.18
22,CCATAGGC,0.0453
23,ACGAGCTG,-0.0885
24,CAAGCGCA,0.0682
25,CTTCTGAC,-0.224

row,Sequence,PBM E-score
1,ACATGAAC,-0.11
2,ATCACAGG,-0.215
3,TGCTCCAA,-0.275
4,TCTCGTAA,0.00809
5,GTATTCAC,0.0243
6,CCCAGTCG,-0.00493
7,ATGCTACG,-0.0869
8,AAACGTAC,-0.288
9,AATTTCTG,-0.136
10,AAATTTAA,-0.0493
11,GAGCATAA,0.0718
12,ATACGTAG,-0.186
13,GTTCTGCA,-0.0999
14,CCGTGCTA,-0.0798
15,ACTCAGCC,-0.072
16,AAATACTT,-0.00908
17,GGCGTAAC,0.0164
18,ATGATACA,-0.148
19,ACATACGC,0.078
20,CAATCACG,0.0708
21,TGTAAGAA,-0.0011
22,TAACTAGA,0.0345
23,AATAATGG,0.121
24,CGGTTATC,0.252
25,GGTAGATA,0.12

row,Sequence,PBM E-score
1,ATAAACAG,-0.038
2,AACCCGCT,0.16
3,ACTGAATA,-0.17
4,AACGACTA,-0.161
5,AGAGACCA,-0.177
6,TCCGGCAA,0.326
7,CGAGGTAA,0.16
8,CTTAGGTA,-0.087
9,GCCCCCCA,-0.255
10,ACTTTTCT,-0.217
11,ATGCTGCA,-0.189
12,ACTGCCGA,0.261
13,CACACAAC,-0.209
14,GCTACAGC,-0.143
15,GATTGGCC,0.0423
16,AAACAGTT,0.071
17,ACGCACTC,-0.101
18,AGTAGCAT,-0.0316
19,AAACTTGA,-0.241
20,AAGACTCA,-0.343
21,AGTTGCAA,-0.0437
22,CTCCAATC,-0.121
23,GCCCAACC,-0.0221
24,CAGACACG,-0.038
25,ATATTGTC,0.2

row,Sequence,PBM E-score
1,AAGAGCCT,-0.219
2,ATGCTAAG,-0.0785
3,AACGTGTG,-0.333
4,GTCAGATA,-0.144
5,ACGCTCAC,0.0603
6,GATACAGC,0.0804
7,CTGATTGC,-0.115
8,TCTTAAGA,-0.0949
9,ATATCTAA,-0.0587
10,AAATCGGG,0.246
11,CTCGGAGA,0.407
12,GTCCTAGA,-0.246
13,TGACGTCA,-0.0588
14,AAACCATG,0.125
15,AGAACAGC,-0.0131
16,ATCATAGC,-0.06
17,GAACTACC,0.00478
18,GAACACGC,0.183
19,CTGCTGAC,-0.15
20,CTAATCTA,0.0829
21,CTATGGGA,-0.109
22,AAGTGCCC,0.0673
23,ACCTTTCA,-0.0864
24,GACGATCC,0.0734
25,ACGCGGCG,0.241

row,Sequence,PBM E-score
1,CCCGCAAA,0.205
2,AAACAAAA,-0.135
3,TACCTAGA,-0.225
4,AACTAGGG,-0.203
5,ACAAAAAA,-0.0543
6,CACTGTCA,-0.261
7,CTCGCCTA,-0.013
8,CAGGAAAA,-0.0124
9,CGCGAGAA,0.0972
10,CCGTATGC,0.139
11,GCGCGACC,0.0577
12,GTCCATGA,-0.249
13,CAGAAGGA,-0.341
14,AACCTAAG,-0.15
15,AGCCCTCG,-0.0699
16,CAGTTAAA,-0.157
17,TTCTTAAA,-0.154
18,AACAGATG,-0.127
19,AAAAACCA,0.0345
20,GACGACGA,-0.0332
21,GGAAATCC,0.234
22,GCGATAAC,0.322
23,CATGTGAG,-0.215
24,AGCCCGCT,-0.00085
25,CGACCATA,-0.0579

row,Sequence,PBM E-score
1,ATACGTCG,0.135
2,AAAGACAT,-0.195
3,TACAAATA,-0.0421
4,CGGACCAC,0.279
5,CATTTGTA,-0.0948
6,AAAGTTAC,-0.202
7,AGGGGCAT,-0.153
8,GGTATTAA,0.265
9,AGACTGAG,-0.208
10,CGCCTGCA,-0.0935
11,ACGGACTG,0.159
12,CGAACTAA,0.0162
13,CCTGGGAA,-0.142
14,CCGATTCG,0.347
15,ACGGTCAA,0.161
16,CATTACGA,-0.296
17,AACGATAA,0.131
18,ATAACCCG,0.268
19,CCTGATCA,-0.235
20,CGTCATCC,0.0326
21,AAAGGATC,-0.126
22,AGCAGAGC,-0.207
23,AGGACGTC,-0.15
24,ACAATGCC,0.0614
25,GCCTTGCA,-0.198

row,Sequence,PBM E-score
1,ATAAAGGG,-0.114
2,CCTCTAAA,-0.289
3,AGCATCTC,-0.13
4,GCACAAAA,0.115
5,CACCATCG,-0.192
6,ACCCTCTC,-0.187
7,GTCCCTAA,-0.126
8,CTCGCAAA,-0.236
9,GACTGTAC,-0.171
10,AAGGGTCT,-0.0614
11,ACCAGTAG,-0.199
12,CTTGGATA,0.057
13,ATTGGCGA,-0.102
14,GTTTAGGA,-0.103
15,AGAGCGGA,0.13
16,AATCACCT,-0.0893
17,AAGGACTT,0.0585
18,AGCCTCAT,-0.156
19,ATCTCATC,-0.0811
20,CGAACCCA,-0.0238
21,AAACTCTC,-0.0198
22,CATGGTTA,-0.0725
23,CTGTACGA,-0.224
24,AGTGTGAG,-0.163
25,CAAATCCA,-0.0837

row,Sequence,PBM E-score
1,CGCCACCG,0.00342
2,CATCCGTC,0.173
3,AGATTGCC,0.0774
4,CGACAATA,0.192
5,TCGCATAA,0.00981
6,GTGATACA,-0.00703
7,ATGCCTGA,-0.169
8,ATTAGCCC,0.111
9,CTCCCAAG,-0.131
10,GTCCTTCA,-0.162
11,AATACAGT,-0.224
12,CTCACGTA,-0.0209
13,AAGTTTAA,-0.122
14,AAAGGGTT,-0.0226
15,CGAACGTC,0.0803
16,ACATACAA,-0.0204
17,GACCTGCA,-0.302
18,AAACCCTG,0.0367
19,TACCCCAA,0.033
